Measurements from the supplement of paper PMC11417369.
± gives the standard deviation of the averaged measurements. The list shows a part of the results.

What follows are sequences tested on PfAP2-EXP AP2 domain (GST-tagged) (assay: gcPBM binding intensity (ln(normalized median fluorescence intensity)); higher = stronger DNA binding).
Procedure, shortened: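 GST-fused DNA-binding domains of P. falciparum, expressed in E. coli, were applied at about 25 μg on average for 1 h to an Agilent 4 × 180k array of primer-extended double-stranded 36-bp intergenic genomic probes and negative controls. Binding intensity is the highest Masliner-normalised natural-log median intensity across replicate spots of either probe orientation, measured with Alexa488 anti-GST antibody and a 488 nm scan.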

Sequence | gcPBM binding intensity (ln)
TTATTTTACTTTTATGCAACTAAAAATATTGCTATA [XGTACX_negctrl_site277] | 8.57 ± 0.33
AATAAAATTTGCGATGCACACAGAATAGCTAATATG [CACACA_site8983] | 8.54 ± 0.45
ACAAATGTGAGAAAGACACACATATAATAAAAAACA [CACACA_site1156] | 8.6 ± 0.48
CACACGCACGAACACACACACACACGCACGCACATA [CACACA_site6305] | 8.76 ± 0.47
TACAGACATACATACACACATACATACAGACATACA [CACACA_site1941] | 8.66 ± 0.26
AAAAAAAAAATATTTGAACACACGAGGATATATAAA [CACACA_site139] | 8.73 ± 0.53
TATATTTAATTATTTTGTACTCATATAAAGATGATG [XGTACX_site5488] | 8.52 ± 0.38
TACATATTTACTATCACACACACGATATAAATAAAT [CACACA_site6701] | 8.56 ± 0.39
ATACATATATAATTATGTACGTATATTTTATATAAC [XGTACX_site4292] | 8.47 ± 0.15
ATGAATAAAAAAGGTGGTACATATATATATATATAT [XGTACX_site7893] | 10.1 ± 0.49
TGTCTTGTAAATTATTGTACTATTTAAAGTATAAAA [XGTACX_site7863] | 8.26 ± 0.4
AAAATAATATAAATAATATAAGTGAGCATATATATA [TGCATGCA_negctrl_site527] | 8.46 ± 0.13
TGTAGTCTGGAGAAAAGTACATAGTATCTGGTAACA [XGTACX_site4940] | 8.68 ± 0.33
TTTTAATTTTAAAAATGTACTTTTATTATTTTTAAT [XGTACX_site8300] | 8.26 ± 0.3
AATCTAATATAATGCACACATAAAAAAAAATCAAAC [CACACA_site3633] | 8.87 ± 0.33
AAATAGTTAAAAAGGCGTACACATAAATAAATAAAT [XGTACX_site2096] | 9.04 ± 0.29
TATTATATGTAGTTGAGTACATATAAATACATATAT [XGTACX_site7933] | 8.43 ± 0.3
GTATATATATATATATATATAATAGTAACTTTTACT [CACACA_negctrl_site608] | 8.66 ± 0.099
TTATTCTACATATATGCATGTGTATGATCTGTTTAT [TGCATGCA_site782] | 8.73 ± 0.23
CATATATACCTATATACACACATATAGATTTATATA [CACACA_site6451] | 8.31 ± 0.35
TGATATTATCTCTTCACACACTCACATACAGACAAA [CACACA_site1246] | 8.64 ± 0.44
ATATAAATGATATGTACACACATTTATATATATAAA [CACACA_site3475] | 8.49 ± 0.33
AAAATAAAAAAAATGTAAAAGGTTAAAGTGAAATAT [CACACA_negctrl_site350] | 8.96 ± 0.39
TATTTGATAAAAAAAAGTACTAGAATTTCGCTTTTG [XGTACX_site7754] | 8.4 ± 0.4
